According to the supplement of paper PMC8728848:
Some of the results follow.

Tests used:
Assay in all cases: glycan array binding signal (z-score within array); higher = stronger binding
Conditions in all cases: glycan notation: IUPAC condensed, linker removed
Neu5Ac(a2-8)Neu5Ac = target: Neu5Ac(a2-8)Neu5Ac
Outline: (§1)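 The binding signal is a Z-score computed within each array and averaged over linkers. Arrays of the same protein sequence at different concentrations or buffers were also averaged together. Data originate from 3228 arrays in the Consortium for Functional Glycomics database, kept only where the protein sequence was available.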

[1] = target: Neu5Ac(a2-8)Neu5Ac(a2-3)Gal(b1-3)GalNAc(b1-4)[Neu5Ac(a2-3)]Gal(b1-4)Glc
Outline: as §1

[2] = target: Neu5Ac(a2-8)Neu5Ac(a2-3)Gal(b1-3)GalNAc(b1-4)[Neu5Ac(a2-8)Neu5Ac(a2-3)]Gal(b1-4)Glc
Outline: as §1

[3] = target: Neu5Ac(a2-8)Neu5Ac(a2-3)Gal(b1-4)Glc
Outline: as §1

[4] = target: Neu5Ac(a2-8)Neu5Ac(a2-3)Gal(b1-4)GlcNAc
Outline: as §1

[5] = target: Neu5Ac(a2-8)Neu5Ac(a2-3)[Gal(b1-3)GalNAc(b1-4)]Gal(b1-4)Glc
Outline: as §1

[6] = target: Neu5Ac(a2-8)Neu5Ac(a2-3)[GalNAc(b1-4)]Gal(b1-4)Glc
Outline: as §1

[7] = target: Neu5Ac(a2-8)Neu5Ac(a2-8)Neu5Ac
Outline: as §1

[8] = target: Neu5Ac(a2-8)Neu5Ac(a2-8)Neu5Ac(a2-3)Gal(b1-4)Glc
Outline: as §1

[9] = target: Neu5Ac(a2-8)Neu5Ac(a2-8)Neu5Ac(a2-3)[Gal(b1-3)GalNAc(b1-4)]Gal(b1-4)Glc
Outline: as §1

[10] = target: Neu5Ac(a2-8)Neu5Ac(a2-8)Neu5Ac(a2-3)[GalNAc(b1-4)]Gal(b1-4)Glc
Outline: as §1

[11] = target: Neu5Ac(a2-8)Neu5Ac(a2-8)Neu5Ac(a2-8)Neu5Ac(a2-3)[GalNAc(b1-4)]Gal(b1-4)Glc
Outline: as §1

[12] = target: Neu5Ac(a2-8)Neu5Gc(a2-3)Gal(b1-4)GlcNAc
Outline: as §1

[13] = target: Neu5Ac(b2-6)Gal(b1-4)GlcNAc
Outline: as §1

Neu5Ac(b2-6)GalNAc = target: Neu5Ac(b2-6)GalNAc
Outline: as §1

[14] = target: Neu5Ac9Ac(a2-3)Gal(b1-3)GlcNAc
Outline: as §1

[15] = target: Neu5Ac9Ac(a2-3)Gal(b1-4)GlcNAc
Outline: as §1

[16] = target: Neu5Ac9Ac(a2-6)Gal(b1-4)GlcNAc
Outline: as §1

[17] = target: Neu5Gc(a2-3)Gal(b1-3)GlcNAc
Outline: as §1

[18] = target: Neu5Gc(a2-3)Gal(b1-3)[Fuc(a1-4)]GlcNAc
Outline: as §1

Neu5Gc(a2-3)Gal(b1-4)Glc = target: Neu5Gc(a2-3)Gal(b1-4)Glc
Outline: as §1

[19] = target: Neu5Gc(a2-3)Gal(b1-4)GlcNAc
Outline: as §1

[20] = target: Neu5Gc(a2-3)Gal(b1-4)GlcNAc(b1-3)Gal(b1-4)GlcNAc(b1-2)Man(a1-3)[Neu5Gc(a2-3)Gal(b1-4)GlcNAc(b1-3)Gal(b1-4)GlcNAc(b1-2)Man(a1-6)]Man(b1-4)GlcNAc(b1-4)GlcNAc
Outline: as §1

[21] = target: Neu5Gc(a2-3)Gal(b1-4)[Fuc(a1-3)]GlcNAc
Outline: as §1

[22] = target: Neu5Gc(a2-6)Gal(b1-4)GlcNAc
Outline: as §1

Neu5Gc(a2-6)GalNAc = target: Neu5Gc(a2-6)GalNAc
Outline: as §1

[23] = target: Neu5Gc(a2-8)Neu5Ac(a2-3)Gal(b1-4)GlcNAc
Outline: as §1

[24] = target: Neu5Gc(a2-8)Neu5Gc(a2-3)Gal(b1-4)GlcNAc
Outline: as §1

[25] = target: Neu5Gc(a2-8)Neu5Gc(a2-3)Gal(b1-4)GlcNAc(b1-3)Gal(b1-4)GlcNAc
Outline: as §1

[26] = target: Neu5Gc(a2-8)Neu5Gc(a2-6)Gal(b1-4)GlcNAc
Outline: as §1

[27] = target: Neu5Gc(b2-6)Gal(b1-4)GlcNAc
Outline: as §1

B1: PX9961J-bvu-499-24-499 (Bacteroides vulgatus) (protein)
chain: LNTDPSTAVPSDDAIKNIDDAQVALNGIYRLASAHSYYGDNYLYYADCRGEDVQARINKGAGRRVSPYYFFDVTADDNFNITLVWNQPYKVIHQANSLIEKLDAGNAGNARPEEVARIKSEALAMRGLALFDLTRLFGMPYTLDNGASLGVPIEIQTTLEDHAPERNTVAQCYEQVLKDLNDALGGLTKEKHDAYMNYWSVKALLSRVYLYMNDNENALKCAEEVINDNGGIYRLFTHDEYPSVWGKDFNSESLFEFYFTMSEPSGGSGGEGAPMVYADNVKDWNNLILTKAYLDLLNEDPEDVRHVFPHLPENAVADTLPVAAKGQPKYLIKYPGKSGSVTDAVSTVNPQDNDLCILRLSEVYLNAAEAAFKIGNTEKALTYLNAIVTRANPAKSVTSADLSLERILKERRKELVGEGHAFFDYMRNGKSVDRSGGWHLTMPEDARVIAPSDPRVALPIPQTEIDANPNIVQNPR
glycan array binding signal (z-score) (Neu5Ac(a2-8)Neu5Ac): -0.25
glycan array binding signal (z-score) [1]: 0.578
glycan array binding signal (z-score) [2]: -0.432
glycan array binding signal (z-score) [3]: -0.744
glycan array binding signal (z-score) [4]: -0.334
glycan array binding signal (z-score) [5]: 0.123
glycan array binding signal (z-score) [6]: -0.134
glycan array binding signal (z-score) [7]: -0.377
glycan array binding signal (z-score) [8]: -0.046
glycan array binding signal (z-score) [9]: 0.142
glycan array binding signal (z-score) [10]: -0.474
glycan array binding signal (z-score) [11]: 0.365
glycan array binding signal (z-score) [12]: 19
glycan array binding signal (z-score) [13]: -0.261
glycan array binding signal (z-score) (Neu5Ac(b2-6)GalNAc): 0.53
glycan array binding signal (z-score) [14]: -0.873
glycan array binding signal (z-score) [15]: -0.319
glycan array binding signal (z-score) [16]: -0.521
glycan array binding signal (z-score) [17]: -0.438
glycan array binding signal (z-score) [18]: -0.155
glycan array binding signal (z-score) (Neu5Gc(a2-3)Gal(b1-4)Glc): -0.005
glycan array binding signal (z-score) [19]: 0.173
glycan array binding signal (z-score) [20]: 1.22
glycan array binding signal (z-score) [21]: -0.163
glycan array binding signal (z-score) [22]: 0.325
glycan array binding signal (z-score) (Neu5Gc(a2-6)GalNAc): -0.455
glycan array binding signal (z-score) [23]: -0.553
glycan array binding signal (z-score) [24]: -0.572
glycan array binding signal (z-score) [25]: 0.077
glycan array binding signal (z-score) [26]: -0.005
glycan array binding signal (z-score) [27]: 0.577
